Read counts are not given, so values of variants with three or more changes are uncertain.
B1: CPEB3 Ribozyme (parent)
chain: UAACAGGGGGCCACAGCAGAAGCGUUCACGUCGCAGCCCCUGUCAGAUUCUGGUGAAUCUGCGAAUUCUGCUGUAUAUCUC

Variants of: B1
Assay: self-cleavage, relative activity (ratio to wild type); higher = more cleavage; in vitro, sequencing
Summary of the method: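 After error-prone PCR and barcoding, CPEB3 ribozyme mutant libraries were transcribed with T7 RNA polymerase at 37°C for 5 hours, then given 15 min with DNase I before an EDTA stop, and they cleaved during both steps. Reverse transcription with template switching preceded Illumina sequencing. Relative activity divides a variant's cleaved/total read fraction by the unmutated ribozyme's. At least 5 reads were required per variant, and three batches were averaged.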

Question: With UAACAGGGGGCCACGGCGGAAGCGUUCACGUCGCAGCCCCUGUCAGGUUCUGGUGAAUCUGCGAAUCCUGCUGUAUAUCCC as the variant, how does the self-cleavage read?
Answer: Its self-cleavage is 0.32.

Question: With UAACAGGGGGCCACCGCAGAAGCGUUCACGUCGCAGCCCCAGUCAGAUUCUGGCGAAUCUGCGAAUUCUGCUGUAUAUCUC as the variant, how does the self-cleavage read?
Answer: The self-cleavage was 0.38.

Question: Which self-cleavage does the source give for UAACAGGGGGCCACGGCGGAUGUGUACACGUCGCUGCCCCUGUCAGAUUCUGGUGAAUCUGCGAAUUCUGCUGUAUAUCUC here?
Answer: Its self-cleavage is 0.04.

Question: Which self-cleavage does the source give for UAACAGGGGGCCACGGCGGAGGCGUUCACGUCGCAGCCCCUGUCAGAUUCUGGAGAACCUGCGAAUUCUGCUGUAUAUCUC here?
Answer: The self-cleavage was 0.06.

Question: Which self-cleavage does the source give for UAACAGGGGGCCACGGCGGAAGCGUUCACGUCGCGGCCCCUGUCAGAUUCUGGUGGAUCUGCGAAUUCUGCUGUAUAUCUC here?
Answer: Its self-cleavage is 0.15.

Question: With UAACAGGGGGCCACGGCGGAAGCGUUCACGUCGCAGCCCCUGUCAGAUUCUGGUGUAUCUGCGAAUACUGCUGUAUAUCUC as the variant, how does the self-cleavage read?
Answer: The self-cleavage was 0.12.

Question: For UAACAGGGGGCCACCGCAGAAGCGUUCACGCCGCAGCCCCUGUCAGAUUCUGGUGAAUCUGCGAAUCCUGCUGUAUAUCUC, which self-cleavage is on record?
Answer: Its self-cleavage is 0.22.

Question: With UAACAGGGGGCCACGGCCGAAGCGUUCACGUCGCAGCCCCUGCCAAACUCUGGUGAAUCCGCGAAUUCUGCUGUAUAUCUC as the variant, how does the self-cleavage read?
Answer: The self-cleavage was 0.23.

Question: Which self-cleavage does the source give for UAACAGGGGGCCACGGCGGAGACGUUCACGUCGCGGCCCCUGUCAGAUUCUGGUGAAUCUACGAAUUCUGCCGUAUAUCUC here?
Answer: Its self-cleavage is 0.09.

Question: Which self-cleavage does the source give for UAACAGGGGGCCACGGCCGAAGCGUACACGUCGCAGCCCCUGUCAGAUACUGGUGUGUCUGCGAAUUCUGCUGUAUAUCUC here?
Answer: The self-cleavage was 0.26.

Question: With UAACAGGGGGCCACGGCGGAGGCGUUCACGUCGCAGCCCCUGUCAGAUUCUGGUGAACCUGCGAAUACAGCUGUAUAUCUC as the variant, how does the self-cleavage read?
Answer: Its self-cleavage is 0.14.

Question: For UAACAGGGGGCCACCGCAGAAGCGUUCACGUCGCAGCCCCUGUCAGAUCCUGGUGAAUCUGCGAAUUCUGCCGUAUACCUC, which self-cleavage is on record?
Answer: The self-cleavage was 0.45.

Question: For UAACAGGGGGCCACCGCAGAAGCGUUCACGUCGCAGCCCCUGUCAGAUUCAGCUGAAUCUGCGAAUUCUGCUGUAUAUCUC, which self-cleavage is on record?
Answer: Its self-cleavage is 0.8.

Question: For UAACAGGGGGCCACGGCGGAAGCGUUCGCGACGCAGCCCCUGUCAGAUUCUGGCGAAUCUGCGAAUUCUGCUGUAUAUCUC, which self-cleavage is on record?
Answer: Its self-cleavage is 0.

Question: With UAACAGGGGGCCACCGCAGAAGCGUUCACGUCGCAGCCCCUGUCAGAUUCUGGCGAAACUGCGAAUUCUGCUGUAUUUCUC as the variant, how does the self-cleavage read?
Answer: Its self-cleavage is 0.14.

Question: With UAACAGGGGGCCACGGCCGAAGCGUUCACGUCGCAGCCCCUGUCAGAUUCUGGUGAGUCUGCGAAUUCUGCUGUAUAUCUC as the variant, how does the self-cleavage read?
Answer: The self-cleavage was 0.08.

Question: With UAACAGGGGGCCACCGCAGAAGCGUUCACGUCGCAGCCCCUGUCAGAUUCCGGUGAAUCUGCGAAUUCUGCUGAAUAUCUC as the variant, how does the self-cleavage read?
Answer: Its self-cleavage is 0.99.

Question: For UAACAGGGGGCCACGGCGGAAGCGUUCACGUCGCAGCCCCUGUCAGAUUCUGGUGGAUCUGCGAAUUCUGCUGUACAUCUC, which self-cleavage is on record?
Answer: The self-cleavage was 0.16.

Question: Which self-cleavage does the source give for UAACAGGGGGCCACCGCAGAAGCGUUCACGUCGCAGCCCCUGUCAGAUUCAGGUGAAUCUGCGAAUCCUGCUGUAUAUCUC here?
Answer: Its self-cleavage is 0.16.

Question: For UAACAGGGGGCCACCGCAGAAGCGUCCACGUCGCAGCCCCUGUCAGAUUCUGGUGAAUCUGCGAAUUCUGCUGUAUAUCCC, which self-cleavage is on record?
Answer: Its self-cleavage is 0.35.

Question: With UAACAGGGGGCCACCGCAGAAGCGUUCACGUCGCAGCCCCCGUCGGAUUCUGGUGAAUCUGCGAAUUCUGCCGUAUAUCUC as the variant, how does the self-cleavage read?
Answer: The self-cleavage was 0.88.

Question: With UAACAGGGGGCCACCGCAGAAGCGUUCACGUCGCAGCCCCUGUCAGAUCCUGGUGAAUCUGCGAAUUCUGCUGGAUUUCUC as the variant, how does the self-cleavage read?
Answer: The self-cleavage was 0.64.

Question: Which self-cleavage does the source give for UAACAGGGGGCCACGGCGGAAGCGUUCGCGUCGCAGCCCCUGUCAGAUUCUGGGGAAUCUGCGAAUUCUGCUGUAUAUCUC here?
Answer: The self-cleavage was 0.53.

Question: For UAACAGGGGGCCACCGCAGAAGCGUUCACGAUGCAGCCCCUGUCAGAUUCUGGUGAAUCUGCGAAUUCUGCUGUAUAUCUC, which self-cleavage is on record?
Answer: The self-cleavage was 0.12.

Question: Which self-cleavage does the source give for UAACAGGGGGCCACCGCAGAAGCGUUCACGUCGCAGCCCCCGUUAGAUUCUGGUGAAUCUGAGAAUUCUGCUGUAUAUCAC here?
Answer: Its self-cleavage is 0.31.

Question: Which self-cleavage does the source give for UAACAGGGGGCCACCGCAGAAGCGUUCACGUCGCAGCCCCUGCCGGAUUCUGGUGAAUCUGCGACUUCUGCUGUAUCGCUC here?
Answer: The self-cleavage was 0.09.

Question: Which self-cleavage does the source give for UAACAGGGGGCCACGGCGGAAGCGUUCACGUCGCGGCCCCAGUCAGAUUCUGGAGAAUCCGCGAAUUCCGCUGUAUAUCUC here?
Answer: Its self-cleavage is 0.47.

Question: With UAACAGGGGGCCACCGCAGAAGCGUUCACGUCGCAGCCCCUGACAGAUUCUGGUGAAUCUGCGAAUUCCGCUGUAUACCUC as the variant, how does the self-cleavage read?
Answer: Its self-cleavage is 0.28.

Question: Which self-cleavage does the source give for UAACAGGGGGCCACGGCGGAAGCGUUCACGUCGCAGCCCCUGUCGGAUUCUGAUGAAUCCGCGAAUUCUGCUGUAUAUCUC here?
Answer: The self-cleavage was 0.46.

Question: With UAACAGGGGGCCACGGCGGGAGCGUUCACGUCGCAGCCCCUGCCUGAAUCUGGUGAAUCUGCGAAUUCUGCUGUAUAUCUC as the variant, how does the self-cleavage read?
Answer: Its self-cleavage is 0.11.

Question: Which self-cleavage does the source give for UAACAGGGGGCCACCGCAGAAGCGUUCACGUCGCAGCCCCUGUCAGACUCUGGUGAAUCCGCGAAUUCUGCUGUAUAUCUC here?
Answer: Its self-cleavage is 0.04.

Question: For UAACAGGGGGCCACCGCAGAAGCGUUCACGUCGCAGCCCCUGUCAGAUCCUGGUGGAUCUGCGAAUUCUGCUGUAUAUCCC, which self-cleavage is on record?
Answer: Its self-cleavage is 1.16.

Question: For UAACAGGGGGCCACGGCCGAAGCGUUCACGUCGCAGCCCCUGUCAGAUUCUGGUGAAUCCGCGAAUUCUGCUGUAUAUCUC, which self-cleavage is on record?
Answer: Its self-cleavage is 0.07.

Question: With UAACAGGGGGCCACCGCAGAAGCGUUCACGCCGCAUCCCCUGUCAGAUUCUGGUGAAUCUGCGAAUUCUGCUGUAUAUCUC as the variant, how does the self-cleavage read?
Answer: The self-cleavage was 0.04.

Source: the RNAGym collection of RNA variant scans (doi:10.1093/nar/gkz1192)
